Laboratory results as given in the supplement of paper PMC4967469.
A lower IC50 marks a more sensitive line; fits outside the tested doses are given as limits. AUC sums up the same curve from the lowest dose to the 256-fold higher top dose; the more sensitive the line, the further below 1. For some assays here: Where the top dose is marked as inferred, it is not printed in the source and was worked back from the curve model. For some assays here: An entry number marks a drug with two screens in the source, which often give different values.

How the values were obtained:
Assay in all cases: Viability of human cancer cell lines after 72 h of drug (GDSC screen)
[1] = compound: COc1cc2c(Nc3ccc(NC(=O)c4ccccc4)cc3)ncnc2cc1OCCCN1CCOCC1 [ZM-447439]; settings: top dose inferred
Protocol: (§1)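 Human cancer cell lines in 384-well plates, medium with 10% serum, drug for 72 h over a 256-fold dose range (nine 2-fold or five 4-fold steps up to the top dose). Adherent lines were fixed and stained with the nucleic acid dye Syto60, suspension lines read with resazurin; signal relative to control wells, capped at 0 and 100%. One two-parameter sigmoid per drug and line, fitted in a mixed model over all curves with the slope shared within a line.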

[2] = compound: Cn1cnc2c(F)c(Nc3ccc(Br)cc3Cl)c(C(=O)NOCCO)cc21 [AZD6244]; settings: screen: GDSC drug entry 1062
Protocol: as §1

[3] = compound: CC(=O)c1c(C)c2cnc(Nc3ccc(N4CCNCC4)cn3)nc2n(C2CCCC2)c1=O [PD-0332991]
Protocol: as §1

Row | Cell Line | AUC [1] | IC50 [1] [µM] | AUC [2] | IC50 [2] [µM] | AUC [3] | IC50 [3] [µM]
1 | 22RV1 (prostate, adherent, top dose 4 µM) | 0.964 | > 4 | 0.929 | > 4 | – | –
2 | 451Lu (melanoma, adherent, top dose 4 µM) | – | – | 0.976 | > 4 | 0.856 | 3.01
3 | A549 (lung adenocarcinoma, adherent, top dose 4 µM) | 0.942 | > 4 | 0.972 | > 4 | – | –
4 | A704 (kidney, adherent, top dose 4 µM) | – | – | 0.985 | > 4 | 0.96 | > 4
5 | BT-20 (breast, adherent, top dose 4 µM) | 0.935 | > 4 | 0.94 | > 4 | – | –
6 | CAL-78 (chondrosarcoma, adherent, top dose 4 µM) | 0.986 | > 4 | 0.986 | > 4 | – | –
7 | CHSA0011 (chondrosarcoma, adherent, top dose 4 µM) | – | – | 0.955 | > 4 | 0.934 | > 4
8 | DU-4475 (breast, suspension, top dose 4 µM) | 0.929 | > 4 | 0.976 | > 4 | – | –
9 | EFM-192A (breast, adherent, top dose 4 µM) | – | – | 0.941 | > 4 | 0.934 | > 4
10 | EKVX (lung adenocarcinoma, adherent, top dose 4 µM) | – | – | 0.902 | > 4 | 0.932 | > 4
11 | EN (endometrium, adherent, top dose 4 µM) | – | – | 0.984 | > 4 | 0.984 | > 4
12 | H513 (mesothelioma, semi-adherent, top dose 4 µM) | 0.985 | > 4 | 0.986 | > 4 | – | –
13 | H3118 (head and neck, adherent, top dose 4 µM) | – | – | 0.926 | > 4 | 0.664 | 0.75
14 | HA7-RCC (kidney, adherent, top dose 4 µM) | – | – | 0.985 | > 4 | 0.797 | 2.11
15 | HCC1500 (breast, adherent, top dose 4 µM) | 0.982 | > 4 | 0.977 | > 4 | – | –
16 | HCC1806 (breast, adherent, top dose 4 µM) | 0.898 | > 4 | 0.921 | > 4 | – | –
17 | HCC-366 (non-small cell lung carcinoma, adherent, top dose 4 µM) | – | – | 0.988 | > 4 | 0.972 | > 4
18 | HCT-116 (large intestine, adherent, top dose 4 µM) | 0.761 | 1.36 | 0.702 | 0.897 | – | –
19 | HD-MY-Z (Hodgkin lymphoma, adherent, top dose 4 µM) | – | – | 0.98 | > 4 | 0.884 | > 4
20 | HT55 (large intestine, adherent, top dose 4 µM) | – | – | 0.99 | > 4 | 0.957 | > 4
21 | HUTU-80 (digestive system, adherent, top dose 4 µM) | 0.717 | 0.905 | 0.991 | > 4 | – | –
22 | HeLa (cervix, adherent, top dose 4 µM) | – | – | – | – | 0.986 | > 4
23 | Hep 3B2_1-7 (liver, adherent, top dose 4 µM) | – | – | 0.978 | > 4 | 0.97 | > 4
24 | Hs-578-T (breast, adherent, top dose 4 µM) | – | – | 0.986 | > 4 | 0.702 | 0.963
25 | IA-LM (large cell lung carcinoma, adherent, top dose 4 µM) | – | – | 0.983 | > 4 | 0.89 | > 4

Row | Cell Line | AUC [1] | IC50 [1] [µM] | AUC [2] | IC50 [2] [µM] | AUC [3] | IC50 [3] [µM]
26 | IGR-37 (melanoma, adherent, top dose 4 µM) | 0.927 | > 4 | 0.223 | 0.0426 | – | –
27 | JHOS-2 (ovary, adherent, top dose 4 µM) | – | – | 0.954 | > 4 | 0.784 | 2.01
28 | JHOS-3 (ovary, adherent, top dose 4 µM) | – | – | 0.984 | > 4 | 0.984 | > 4
29 | JHU-011 (head and neck, adherent, top dose 4 µM) | – | – | 0.93 | > 4 | 0.474 | 0.213
30 | JIMT-1 (breast, adherent, top dose 4 µM) | – | – | 0.968 | > 4 | 0.945 | > 4
31 | Jurkat (T-cell leukaemia, suspension, top dose 4 µM) | 0.993 | > 4 | 0.975 | > 4 | – | –
32 | KON (head and neck, adherent, top dose 4 µM) | – | – | 0.916 | > 4 | 0.613 | 0.509
33 | L-363 (myeloma, suspension, top dose 4 µM) | 0.898 | 3.84 | 0.965 | > 4 | – | –
34 | LB1047-RCC (kidney, adherent, top dose 4 µM) | – | – | 0.975 | > 4 | 0.64 | 0.642
35 | LC-1-sq (lung squamous cell carcinoma, adherent, top dose 4 µM) | – | – | 0.949 | > 4 | 0.893 | > 4
36 | LN-229 (glioma, adherent, top dose 4 µM) | – | – | 0.746 | 1.26 | 0.837 | 2.65
37 | MCF7 (breast, adherent, top dose 4 µM) | 0.96 | > 4 | 0.981 | > 4 | – | –
38 | MDA-MB-231 (breast, adherent, top dose 4 µM) | 0.94 | > 4 | 0.845 | 3.14 | – | –
39 | MDA-MB-436 (breast, adherent, top dose 4 µM) | – | – | 0.984 | > 4 | 0.959 | > 4
40 | MDA-MB-453 (breast, adherent, top dose 4 µM) | 0.976 | > 4 | 0.985 | > 4 | – | –
41 | MDA-MB-468 (breast, adherent, top dose 4 µM) | 0.904 | > 4 | 0.962 | > 4 | – | –
42 | MKN1 (stomach, adherent, top dose 2 µM) | 0.947 | > 2 | – | – | – | –
43 | MMAC-SF (melanoma, adherent, top dose 2 µM) | 0.954 | > 2 | – | – | – | –
44 | MOLM-13 (acute myeloid leukaemia, suspension, top dose 4 µM) | 0.692 | 0.828 | 0.972 | > 4 | – | –
45 | MS751 (cervix, adherent, top dose 4 µM) | – | – | 0.989 | > 4 | 0.99 | > 4
46 | MV-4-11 (leukaemia, suspension, top dose 4 µM) | 0.69 | 0.761 | 0.952 | > 4 | – | –
47 | NCI-H358 (lung adenocarcinoma, adherent, top dose 2 µM) | 0.911 | > 2 | – | – | – | –
48 | NCI-H838 (lung adenocarcinoma, adherent, top dose 4 µM) | – | – | 0.987 | > 4 | 0.675 | 0.788
49 | NCI-H1437 (lung adenocarcinoma, adherent, top dose 4 µM) | 0.908 | > 4 | 0.947 | > 4 | – | –
50 | NCI-H1568 (lung adenocarcinoma, adherent, top dose 4 µM) | 0.917 | > 4 | 0.936 | > 4 | – | –

Row | Cell Line | AUC [1] | IC50 [1] [µM] | AUC [2] | IC50 [2] [µM] | AUC [3] | IC50 [3] [µM]
51 | NCI-H1648 (lung adenocarcinoma, adherent, top dose 2 µM) | 0.943 | > 2 | – | – | – | –
52 | NCI-H1838 (lung adenocarcinoma, adherent, top dose 2 µM) | 0.983 | > 2 | – | – | – | –
53 | NCI-H2030 (lung adenocarcinoma, adherent, top dose 2 µM) | 0.96 | > 2 | – | – | – | –
54 | NCI-H2110 (non-small cell lung carcinoma, adherent, top dose 4 µM) | 0.964 | > 4 | 0.936 | > 4 | – | –
55 | NCI-H2172 (non-small cell lung carcinoma, adherent, top dose 4 µM) | 0.979 | > 4 | 0.967 | > 4 | – | –
56 | NCI-H3122 (lung adenocarcinoma, adherent, top dose 4 µM) | 0.947 | > 4 | 0.896 | > 4 | – | –
57 | OVCAR-3 (ovary, adherent, top dose 4 µM) | 0.897 | > 4 | 0.969 | > 4 | – | –
58 | OVTOKO (ovary, adherent, top dose 4 µM) | 0.866 | > 4 | 0.857 | > 4 | – | –
59 | RERF-GC-1B (stomach, adherent, top dose 2 µM) | 0.96 | > 2 | – | – | – | –
60 | RH-41 (rhabdomyosarcoma, adherent, top dose 2 µM) | 0.961 | > 2 | – | – | – | –
61 | SK-MEL-2 (melanoma, adherent, top dose 4 µM) | 0.936 | > 4 | – | – | – | –
62 | SK-MEL-28 (melanoma, adherent, top dose 2 µM) | 0.981 | > 2 | – | – | – | –
63 | SK-MEL-30 (melanoma, adherent, top dose 2 µM) | 0.973 | > 2 | – | – | – | –
64 | SK-UT-1 (soft tissue, adherent, top dose 2 µM) | 0.885 | 1.85 | – | – | – | –
65 | SU8686 (pancreas, adherent, top dose 2 µM) | 0.985 | > 2 | – | – | – | –
66 | SW13 (adrenal gland, adherent, top dose 2 µM) | 0.987 | > 2 | – | – | – | –
67 | SW900 (lung squamous cell carcinoma, adherent, top dose 2 µM) | 0.962 | > 2 | – | – | – | –
68 | SW1417 (large intestine, adherent, top dose 4 µM) | 0.972 | > 4 | – | – | – | –
69 | SW1573 (lung adenocarcinoma, adherent, top dose 4 µM) | 0.909 | > 4 | 0.938 | > 4 | – | –
70 | T47D (breast, adherent, top dose 4 µM) | 0.924 | > 4 | 0.966 | > 4 | – | –
71 | THP-1 (acute myeloid leukaemia, suspension, top dose 4 µM) | 0.991 | > 4 | – | – | – | –
72 | TT (thyroid, adherent, top dose 2 µM) | 0.927 | > 2 | – | – | – | –
73 | U031 (kidney, adherent, top dose 2 µM) | 0.941 | > 2 | – | – | – | –
74 | UACC-893 (breast, adherent, top dose 2 µM) | 0.967 | > 2 | – | – | – | –
